Values joined by “and” are separate entries in the source; they are usually repeats but may differ in a detail not shown here. Equal entries are not always repeated.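 The compound was tested at five concentrations on cells cultured in 96-well plates, with a 48-hour exposure period. GI50: concentration for 50% inhibition of growth.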 Active and inactive are the calls of the source. No stated cut-off is given here; in the data, active = GI50 up to about 1.1 µM and inactive = higher.
System: NCI-H322M
Test: NCI anticancer screen, dose series, 48 h

Q: Which GI50 does the source give for O=C(O)/C(=C\c1ccncc1)c1cccc2ccccc12 here?
A: inactive: > 100 µM

Q: How did the GI50 turn out when Cn1c(=O)c2c(nc(Cc3ccccc3)n2CC(=O)O)n(C)c1=O was run?
A: inactive: > 100 µM

Q: For FC(F)(Sc1ncccn1)c1nc2ccccc2o1, which GI50 is on record?
A: inactive: > 100 µM

Q: For CC(=O)NC1(C(=O)N[C@@H](Cc2ccccc2)C(=O)NC2CCCCC2)Cc2ccc3ccccc3c2-c2c(ccc3ccccc23)C1, which GI50 is on record?
A: inactive: 70.5 µM and inactive: 44.8 µM

Q: For Cc1cccc(C(C)C)c1NC(=O)/C(Cc1c([N+](=O)[O-])cccc1[N+](=O)[O-])=N/NC(=O)CC#N, which GI50 is on record?
A: inactive: > 100 µM

Q: COc1ccc(C[C@H](N)C(=O)N2C[C@@H](CO)C[C@@H](n3cnc4c(N(C)C)ncnc43)C2)cc1 was tested. Which GI50 did it give?
A: inactive: > 100 µM

Q: How did the GI50 turn out when CN(C(=O)C1=CCC2(CC1)OCCO2)c1ccccc1I was run?
A: inactive: > 100 µM

Q: How did the GI50 turn out when COc1ccc(N2C(=O)C3ON(C(C(N)=O)c4ccccc4)C(c4cc5ccccc5c5ccccc45)C3C2=O)cc1 (configuration not stated) was run?
A: inactive: > 50 µM

Q: For C=C(CC)C[C@@H]1C[C@]2(C(=O)OC)c3[nH]c4ccccc4c3CCN2C1=O, which GI50 is on record?
A: inactive: 22.7 µM

Q: CC1=C2C(=C[C@H]3[C@]4(C)CCCC(C)(C)[C@H]4CC[C@]34O[C@H]24)OC1=O was tested. Which GI50 did it give?
A: inactive: > 100 µM

Q: COc1ccc(C(C#N)NC23CC4CC(CC(C4)C2)C3)cc1OC (configuration not stated) was tested. Which GI50 did it give?
A: inactive: > 100 µM

Q: With Nc1ccn(C2OC(CO)C(O)C2(F)F)c(=O)n1 (configuration not stated) as the molecule, how does the GI50 read?
A: active: 0.635 µM

Q: Which GI50 does the source give for COC(=O)c1cc(NC2OCC(OC(C)=O)C(OC(C)=O)C2OC(C)=O)nc(SC)c1C(=O)OC (configuration not stated) here?
A: inactive: > 100 µM

Q: For CC(C)(C)[Si](C)(C)OC[C@H](/C=C\CCCC(=O)O)NC1(c2ccccc2)c2ccccc2-c2ccccc21, which GI50 is on record?
A: inactive: 23.7 µM

Q: With S=c1sc2cscc2s1 as the molecule, how does the GI50 read?
A: inactive: 21.3 µM

Q: COc1ccccc1/C=C1\CCC(CCN2CCOCC2)C1=O (configuration not stated) was tested. Which GI50 did it give?
A: inactive: > 100 µM

Q: For O=C(CCC(NC(=O)OCc1ccccc1)C(=O)OCc1ccccc1)Nc1cccc(OCc2ccccc2)c1 (configuration not stated), which GI50 is on record?
A: inactive: 32.7 µM

Q: CCOC(=O)c1ccc(C)c(/N=N/N(C)C)c1 was tested. Which GI50 did it give?
A: inactive: > 100 µM

Q: CN(C)CC(CC1=C(CC(CN(C)C)N(C)C)CCC1)N(C)C (configuration not stated) was tested. Which GI50 did it give?
A: inactive: > 100 µM

Q: Which GI50 does the source give for O=C1NN=C(c2ccc([N+](=O)[O-])cc2)C1n1nc(-c2ccccc2)c2ccccc2c1=O (configuration not stated) here?
A: inactive: > 100 µM

Q: CCOC(=O)c1c(NC(=O)Nc2ccccc2)c(C(N)=O)c2n1CCCCC2 was tested. Which GI50 did it give?
A: inactive: > 100 µM

Q: With O=c1ccc2ccc(S)cc2o1 as the molecule, how does the GI50 read?
A: inactive: > 100 µM

Q: C(=C/c1nc2ccccc2o1)/c1ccc2c(c1)OCO2 was tested. Which GI50 did it give?
A: inactive: 23.1 µM

Q: With Nc1n[nH]c(CCCCCCCc2nnc(N)[nH]2)n1 as the molecule, how does the GI50 read?
A: inactive: > 100 µM

Q: For COc1ccc(N2CN(C)CSC2=S)cc1, which GI50 is on record?
A: inactive: > 100 µM

Q: For O=C(c1cccs1)N(C(=S)N1CCN(c2ccccc2)CC1)C1CCCCC1, which GI50 is on record?
A: inactive: > 100 µM

Q: For COC(=O)/C=C(\C)CCC1SC1(C)C (configuration not stated), which GI50 is on record?
A: inactive: > 100 µM

Q: How did the GI50 turn out when N=C(NNS(=O)(=O)c1ccccc1)Oc1ccc(Cl)cc1 was run?
A: inactive: > 100 µM

Q: For N#C/C(=C/NC(=S)NCc1ccccc1)C(N)=O, which GI50 is on record?
A: inactive: > 100 µM

Q: Which GI50 does the source give for CN1CCN(Cn2nc(COc3ccc(Cl)cc3)n(/N=C/c3ccc(-c4ccc(Cl)cc4Cl)o3)c2=S)CC1 here?
A: inactive: 6.18 µM

Q: For CCCCCCCCCCCC[N+](CCCCCCCCCCCC)=C1SCCS1, which GI50 is on record?
A: inactive: 17 µM

Q: How did the GI50 turn out when CC12CCC3C(CCC4(O)C=CCCC34C=O)C1(O)CC(O)C2c1ccc(=O)oc1 (configuration not stated) was run?
A: active: 0.0562 µM

Q: Cc1ccc(C2C(Cl)C(=O)N2NC(=O)c2ccc(N)cc2)cc1 (configuration not stated) was tested. Which GI50 did it give?
A: inactive: 19.1 µM

Q: How did the GI50 turn out when Brc1ccccc1/C=C\C1(c2ccccc2)OCCO1 was run?
A: inactive: 16 µM

Q: With COc1ccc(C2C(=O)c3ccc(OC)cc3OC2c2cccnc2)cc1 (configuration not stated) as the molecule, how does the GI50 read?
A: inactive: > 100 µM

Q: CSc1n[n+](C)cc(N)c1N was tested. Which GI50 did it give?
A: inactive: > 100 µM

Q: With C/C(=N\O)C1CC(CC(=O)O)C1(C)C (configuration not stated) as the molecule, how does the GI50 read?
A: inactive: > 100 µM

Q: Which GI50 does the source give for CN1c2ccccc2C(=O)NC12CCN(CCCC(=O)c1ccc(F)cc1)CC2 here?
A: inactive: > 100 µM

Q: How did the GI50 turn out when CC(=O)O[C@@H]1[C@H]2[C@@H](OC(=O)c3ccccc3)[C@@H](C)C[C@]2(O)[C@H](OC(C)=O)[C@@]2(C)[C@@H]3C[C@@](C)(OC(C)=O)C[C@@H](OC(C)=O)[C@@]3(OC(C)=O)C[C@@]12C was run?
A: inactive: > 10 µM

Q: Which GI50 does the source give for CCOC(=O)C(NC(=O)Nc1ccccc1)(Nc1cccc(Cl)c1)C(F)(F)F (configuration not stated) here?
A: inactive: > 100 µM

Q: How did the GI50 turn out when CO/N=C1/c2sccc2[C@H](NC(=O)C(F)(F)F)[C@@H]1O was run?
A: inactive: > 100 µM

Q: For COc1ccc2c(c1)c1c(n2CCN2CCCCC2)-c2cccc(OC)c2CC1, which GI50 is on record?
A: inactive: 17.3 µM

Q: COC(OC)(c1ccccc1)C(Br)Br was tested. Which GI50 did it give?
A: inactive: > 100 µM

Q: With CN1CC2(CCCCC2)C(O)C12C=CCCC2 (configuration not stated) as the molecule, how does the GI50 read?
A: inactive: > 100 µM

Q: How did the GI50 turn out when COC(=O)/C=C(C)/C=C\COC1CCCCO1 (configuration not stated) was run?
A: inactive: > 100 µM

Q: Which GI50 does the source give for O=C1c2ccccc2C(=O)N1CCn1nc(-c2ccccc2)cc(-c2ccccc2)c1=O here?
A: inactive: > 100 µM

Q: How did the GI50 turn out when BrC(/C=N/Nc1nnc(-c2ccccc2)c(-c2ccccc2)n1)C(Br)c1ccccc1 (configuration not stated) was run?
A: inactive: 24.8 µM

Reference: ChEMBL document CHEMBL1201862, “PubChem BioAssay data set” (2004)
